From PubChem BioAssay AID1745853 (National Center for Advancing Translational Sciences (NCATS), 2022) come the findings set out here.

Where “and” joins values, the source holds several entries; their conditions need not be identical. Equal entries are not always repeated. This is one part of the list. These are further read-outs of the screen, such as a control signal, another cell line or another target. No call is given for them.

Holding throughout (experiment): Primary Screen for Target Class Profiling of Small Molecule Inhibitors of Methyltransferases
Test [1] has as its target Glycine N-methyltransferase (Homo sapiens) (UniProt Q14749). To be noted: purified enzyme, MTase-Glo SAH luminescence; measured here: GNMT inhibition; at 40 µM; stronger effect = lower value. In outline: (§1)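 Each enzyme was reacted with SAM and its substrate, with compounds tested once at 40 uM; SAH formed was read by MTase-Glo luminescence.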
For test [2], the target named is Guanidinoacetate N-methyltransferase (Homo sapiens) (UniProt Q14353). As to conditions: purified enzyme, MTase-Glo SAH luminescence; measured here: GAMT inhibition; at 40 µM; stronger effect = lower value. The essentials:
as §1

Test [3] has as its target Histamine N-methyltransferase (Homo sapiens) (UniProt P50135). To be noted: purified enzyme, MTase-Glo SAH luminescence; measured here: HNMT inhibition; at 40 µM; stronger effect = lower value. The essentials:
as §1

Test [4] addresses Nicotinamide N-methyltransferase (Homo sapiens) (UniProt P40261). To be noted: purified enzyme, MTase-Glo SAH luminescence; measured here: NNMT inhibition; at 40 µM; stronger effect = lower value. In outline: as §1
Test [5] concerns the target Phenylethanolamine N-methyltransferase (Homo sapiens) (UniProt P11086). To be noted: purified enzyme, MTase-Glo SAH luminescence; measured here: PNMT inhibition; at 40 µM; stronger effect = lower value. In outline: as §1
On the % scale 0 is the no-effect control and ±100 the full control effect.

`Cc1nc2c3ccccc3n3c(CCCC(=O)N4CCN(c5ccc(F)cc5)CC4)nnc3n2n1`: the activity change, negative = inhibition was -20.3% in test [1]; 0.865% in test [2]; 5.07% in test [3]; 9.43% in test [4]; 2.5% in test [5].
In the case of `CC(C)n1c(=O)c2ccc(C(=O)NC3CCCC3)cc2n2c(=O)n(Cc3c(F)cccc3Cl)nc12`, the activity change, negative = inhibition came out at 6.19% in test [1]; 4.03% in test [2]; 4.24% in test [3]; 2.82% in test [4]; 7.52% in test [5].
For the molecule `Cc1cccc(C#Cc2ccccc2)n1`, the activity change, negative = inhibition in test [1] was -25.4%; in test [2], -13.6%; in test [3], -14.5%; in test [4], -19%; in test [5], -17.7%.
With `CN(C1CCc2c(c3ccccc3n2CC(=O)O)C1)S(=O)(=O)c1ccc(F)cc1` (stereo not given), the activity change, negative = inhibition is -2.75% and -1.75% in test [1]; -2.72% and 3.52% in test [2]; 10.7% and 9.99% in test [3]; -18.6% and -13.4% in test [4]; 1.57% and 3.66% in test [5].
With `CC1CCCC(NC(=O)C2(C)Cn3c(cc4sccc43)C(=O)N2CCCc2ccccc2)C1C` (stereo not given), the activity change, negative = inhibition in test [1] was -9.99%; in test [2] it was -1.15%; in test [3], -3.55%; in test [4], -10%; in test [5] it was -3.62%.
In the same order, the values of `CC1=C(CO)C(=O)O[C@@H]([C@@H](C)[C@H]2CC[C@H]3[C@@H]4C[C@H]5O[C@]56[C@@H](O)C=CC(=O)[C@]6(C)[C@H]4CC[C@]23C)C1` are -11.3%, -6.09%, 5.87%, -17.5% and -8.14%.
With `CO[C@@]12CC3[C@@H]([C@@H](O)[C@@H](OC(C)=O)C4[C@](C)(COC(C)=O)CCC[C@]34C)[C@@H](C)C1=CC(=O)O2` (stereo not given in full), the activity change, negative = inhibition was 0% in test [1]; 3.14% in test [2]; 4.15% in test [3]; -10.7% in test [4]; 5.16% in test [5].
The corresponding values for `CSc1ccc(CNC(=O)CCn2ccc3cc(S(=O)(=O)N4CCCCC4)ccc32)cc1` are -0.496%, 1.92%, -4.28%, -6.38% and -3.95%.
For `O=C(c1ccc(F)cc1)N1CCC(C(=O)N2CCCC(c3nc4ccncc4[nH]3)C2)CC1` (stereo not given), the activity change, negative = inhibition was -7.21% in test [1]; -7.8% in test [2]; -13.8% in test [3]; -23.6% in test [4]; -11.6% in test [5].
The corresponding values for `CC(CNC(=O)CCc1nnc2n(CCc3ccccc3)c(=O)c3ccccc3n12)c1ccccc1` (stereo not given) are -17.4%, 0%, 3.24%, 3.47% and 0.71%.
With `O=C(NCc1ccc(F)cc1)c1ccc2c(=O)nc3c(-c4ccc(Cl)cc4)n[nH]n3c2c1`, the activity change, negative = inhibition in test [1] was -0.685%; in test [2], 2.73%; in test [3] it was 1.75%; in test [4], 5.49%; in test [5], 1.25%.
In the same order, the values of `NS(=O)(=O)c1ccc(CCNc2nc3c(-c4ccc(Cl)cc4)nnn3c3ccccc23)cc1` are -3.46%, 6.74%, 6.54%, 2.67% and 1.71%.
In the same order, the values of `FC(F)(F)c1ccc(CN2CCC3(CC(c4cccc(C(F)(F)F)c4)=NO3)C2)cc1` (stereo not given) are -5.03%, -0.695%, -0.923%, -4.08% and -10%.
Regarding `Cn1cc(CN[C@H]2C[C@H]3C(=O)NC[C@@H](CCC(=O)NCc4ccccc4)N3C2)c2ccccc21`, the activity change, negative = inhibition in test [1] was -5.4%; in test [2], -3.58%; in test [3], -4.7%; in test [4] it was -14%; in test [5], -4.88%.
With `CO[C@H]1C(=O)N(C(C)C)[C@H]1C1CCN(S(=O)(=O)c2ccc3c(c2)CCC3)CC1`, the activity change, negative = inhibition in test [1] was -4.04%; in test [2], -2.57%; in test [3], 0.388%; in test [4], -8.41%; in test [5], 13.2%.
The corresponding values for `O=C(NCc1cccc(Cl)c1)c1cnc2c(c1)N(C(=O)Cc1ccc(O)cc1)CCC2` are -6.6%, -4.58%, -82%, -15.4% and -7.5%.
Take `CNc1nc(C(=O)N2CCC3(CCC(=O)N(CC4CCCO4)C3)CC2)cs1` (stereo not given): the activity change, negative = inhibition in test [1] was -1.34%; in test [2], -1.24%; in test [3], 1.57%; in test [4], -6.28%; in test [5], -8.63%.
With `CCOc1ccc(N2C(=O)c3cc4ccccc4n3CC2(C)C(=O)NCCC(C)C)cc1` (stereo not given), the activity change, negative = inhibition in test [1] is 0.608%; in test [2], 0%; in test [3] it was 4.13%; in test [4], 1.03%; in test [5] it was -4.17%.
`COC(=O)N(C)c1c(N)nc(-c2nn(Cc3ccccc3F)c3ncccc23)nc1N`: the activity change, negative = inhibition in test [1] is 5.86%; in test [2], 0.696%; in test [3], 1.96%; in test [4], -15.2%; in test [5], -2.89%.
In the same order, the values of `Cc1cc(C(=O)NCC2CCCN(Cc3nnc(-c4cccnc4)o3)C2)no1` (stereo not given) are -2.31%, -0.578%, -0.257%, -5.47% and -0.001%.
For `CCc1cc2c(cc3n2CC(C)(C(=O)NC2CCCCCC2)N(Cc2cccnc2)C3=O)s1` (stereo not given), the activity change, negative = inhibition in test [1] is -9.58%; in test [2] it was 0%; in test [3], -2.35%; in test [4], -22%; in test [5] it was -2.66%.
Take `CCn1nnnc1NCc1ccc(C(C)C)cc1`: the activity change, negative = inhibition in test [1] was 7.44%; in test [2], 6.91%; in test [3], 8.39%; in test [4], -7.35%; in test [5], 5.02%.
Turning to `C=C[C@@]12COC(=O)C(=C)[C@@H]1[C@@H](O)[C@H](C(=C)C(=O)OC)[C@@H](O)C2`, the activity change, negative = inhibition in test [1] was 0.961%; in test [2] it was -0.228%; in test [3], 10.8%; in test [4], -12.8%; in test [5], -6.7%.
In the same order, the values of `C=CCN1CCc2c(cc(O)c(O)c2Br)[C@@H](c2ccccc2)C1` are -40.4%, 4.68%, -40.9%, -8.76% and 2.86%.
Take `CN(C)Cc1cn(C[C@H]2C[C@@H](NC(=O)Nc3ccc4c(c3)OCCO4)[C@H](O)[C@@H]2O)nn1`: the activity change, negative = inhibition in test [1] was -7.62%; in test [2], -8.55%; in test [3], -5.71%; in test [4] it was -9.88%; in test [5] it was -0.984%.
`O=C(O)c1cnn(-c2nc3cc(OC(F)(F)F)c(Cl)cc3[nH]2)c1`: the activity change, negative = inhibition was -8.61% in test [1]; -3.73% in test [2]; 7.79% in test [3]; -12.3% in test [4]; 4.5% in test [5].
`O=C(O)c1ccc(CC2CCN(Cc3ccccn3)C2)cc1` (stereo not given): the activity change, negative = inhibition in test [1] is -4.94%; in test [2], -6.06%; in test [3], -4.26%; in test [4], -11.2%; in test [5], -17.3%.
In the same order, the values of `CCOCCCN1C(=O)c2cc(-c3ccc(C(C)C)cc3)nn2CC1(C)C(=O)NC1CCCCC1` (stereo not given) are -13.4%, 3.99%, -0.928%, -9.78% and -1.34%.
In the same order, the values of `CCn1ncc(CN2CCC3(CCC3OC)CC2)c1C` (stereo not given) are 1.65%, -1.15%, 0.048%, 1.06% and -3.19%.
